Laboratory results reported in the supplement of paper PMC10369915.
The other results are listed elsewhere or left out. Cut-off read from the data, not from the text of the source: active = 3.2 or more and inactive = the rest. Only a few entries rise above the background.

Legend:
Test in all cases: enrichment score (SH2-bound / input frequency) (ratio); bacterial display of known human phosphotyrosine sites (pTyr-Var adds point mutants) read by sequencing; higher = stronger binding; tyrosines were phosphorylated by kinases first
Settings in all cases: peptide library: pTyr-Var
[1] = biological target: SHP2 C-SH2 domain E139D
[2] = biological target: SHP2 C-SH2 domain wild-type
[3] = biological target: SHP2 N-SH2 domain L43F
[4] = biological target: SHP2 N-SH2 domain T42A
[5] = biological target: SHP2 N-SH2 domain T52S
[6] = biological target: SHP2 N-SH2 domain wild-type

Measured: enrichment score
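Note: displayed peptides selected on beads carrying the immobilized SH2 domain, with library peptides lacking any tyrosine serving as negative controls.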

B1: TBC1D14_Y46_A43T (peptide)
chain: LSTPEYGPKLK
inactive: [1] 0.727 | [2] 0.602 | [3] 0.761 | [4] 0.603 | [5] 0.593 | [6] 0.724

B2: TBC1D14_Y46_L41V (peptide)
chain: VSAPEYGPKLK
inactive: [1] 0.538 | [2] 0.776 | [3] 0.664 | [4] 0.949 | [5] 0.644 | [6] 0.762

B3: TBCK_Y153_I151M (peptide)
chain: DFPMGYPSYLA
inactive: [1] 0.89 | [2] 0.614 | [3] 0.754 | [4] 0.764 | [5] 0.901 | [6] 0.788

B4: TBCK_Y153_I151M_YF (peptide)
chain: DFPMGYPSFLA
inactive: [1] 0.681 | [2] 0.704 | [3] 0.677 | [4] 0.663 | [5] 0.55 | [6] 0.594

B5: TBCK_Y153_YF (peptide)
chain: DFPIGYPSFLA
inactive: [1] 0.461 | [2] 0.538 | [3] 0.466 | [4] 0.458 | [5] 0.377 | [6] 0.63

B6: TBK1_Y153_S151F (peptide)
chain: DGQFVYKLTDF
inactive: [1] 0.993 | [2] 0.963 | [3] 0.895 | [4] 0.815 | [5] 1.01 | [6] 0.9

B7: TBL1X_Y509 (peptide)
chain: HQEPVYSVAFS
inactive: [1] 0.809 | [2] 0.765 | [3] 0.873 | [4] 0.706 | [5] 0.801 | [6] 1.02

B8: TBL1X_Y509_Y509C (peptide)
chain: HQEPVCSVAFS
inactive: [1] 0.504 | [2] 0.757 | [3] 0.649 | [4] 0.567 | [5] 0.85 | [6] 0.811

B9: TBX15_Y159_H156N (peptide)
chain: DPNQQYYIAMD
inactive: [1] 0.533 | [2] 0.617 | [3] 0.561 | [4] 0.498 | [5] 0.649 | [6] 0.498

B10: TCTE3_Y87 (peptide)
chain: KFANSYRMEPL
inactive: [1] 0.813 | [2] 0.701 | [3] 0.806 | [4] 0.673 | [5] 0.78 | [6] 0.668

B11: TDP1_Y497 (peptide)
chain: PHIKTYMRPSP
inactive: [1] 0.815 | [2] 0.974 | [3] 0.672 | [4] 0.655 | [5] 0.644 | [6] 0.693

B12: TDP1_Y497_H493R (peptide)
chain: PRIKTYMRPSP
inactive: [1] 0.814 | [2] 1.07 | [3] 0.633 | [4] 0.519 | [5] 0.716 | [6] 0.629

B13: TEC_Y360 (peptide)
chain: TAGFSYEKWEI
inactive: [1] 1.2 | [2] 0.966 | [3] 0.906 | [4] 1.16 | [5] 0.98 | [6] 0.932

B14: TEK_Y1102_K1100N (peptide)
chain: EERNTYVNTTL
inactive: [1] 1.61 | [2] 1.69 | [3] 1.62 | [4] 2.14 | [5] 1.72 | [6] 1.66

B15: TEK_Y1108_T1106M_YF (peptide)
chain: VNTMLYEKFTF
inactive: [1] 1.77 | [2] 1.77 | [3] 1.48 | [4] 1.47 | [5] 1.37 | [6] 1.68

B16: TEK_Y897 (peptide)
chain: CEHRGYLYLAI
inactive: [1] 0.626 | [2] 0.754 | [3] 0.649 | [4] 0.749 | [5] 0.665 | [6] 0.939

B17: TEK_Y897_Y897C (peptide)
chain: CEHRGCLYLAI
inactive: [1] 1.05 | [2] 1.3 | [3] 1.16 | [4] 0.977 | [5] 1.09 | [6] 1.16

B18: TEK_Y897_Y897C_YF (peptide)
chain: CEHRGCLFLAI
inactive: [1] 1.68 | [2] 1.71 | [3] 1.78 | [4] 1.32 | [5] 1.43 | [6] 1.76

B19: TEK_Y897_Y897H (peptide)
chain: CEHRGHLYLAI
inactive: [1] 0.768 | [2] 0.757 | [3] 0.53 | [4] 0.725 | [5] 0.545 | [6] 0.853

B20: TEK_Y897_Y897S (peptide)
chain: CEHRGSLYLAI
inactive: [1] 0.955 | [2] 1.22 | [3] 0.808 | [4] 0.923 | [5] 0.845 | [6] 1.11

B21: TEK_Y897_YF (peptide)
chain: CEHRGYLFLAI
inactive: [1] 0.773 | [2] 0.919 | [3] 0.741 | [4] 0.707 | [5] 0.559 | [6] 0.845

B22: TEK_Y899 (peptide)
chain: HRGYLYLAIEY
inactive: [1] 0.34 | [2] 0.803 | [3] 0.361 | [4] 0.329 | [5] 0.476 | [6] 0.548

B23: TEK_Y899_Y897C_YF (peptide)
chain: HRGCLYLAIEF
inactive: [1] 0.338 | [2] 0.797 | [3] 0.859 | [4] 0.625 | [5] 0.999 | [6] 0.837

B24: TEK_Y899_Y897F_YF (peptide)
chain: HRGFLYLAIEF
inactive: [1] 0.708 | [2] 0.791 | [3] 0.441 | [4] 0.518 | [5] 0.414 | [6] 0.756

B25: TEKT1_Y118 (peptide)
chain: ETCLAYREKRI
inactive: [1] 0.401 | [2] 0.343 | [3] 0.495 | [4] 0.319 | [5] 0.581 | [6] 0.54

B26: TEKT4_Y210 (peptide)
chain: DKMEAYNIDET
inactive: [1] 0.557 | [2] 0.412 | [3] 0.407 | [4] 0.44 | [5] 0.581 | [6] 0.819

B27: TENM4_Y1530 (peptide)
chain: SGDDGYAKDAK
inactive: [1] 0.303 | [2] 0.4 | [3] 0.336 | [4] 0.346 | [5] 0.351 | [6] 0.431

B28: TENM4_Y399 (peptide)
chain: TDVSLYPSGGT
inactive: [1] 0.502 | [2] 0.299 | [3] 0.421 | [4] 0.463 | [5] 0.666 | [6] 0.591

B29: TENM4_Y399_V396I (peptide)
chain: TDISLYPSGGT
inactive: [1] 0.626 | [2] 0.684 | [3] 0.687 | [4] 0.636 | [5] 0.7 | [6] 0.674

B30: TERT_Y707 (peptide)
chain: PPPELYFVKVD
inactive: [1] 1.72 | [2] 0.99 | [3] 1.08 | [4] 1.43 | [5] 1.27 | [6] 1.04

B31: TERT_Y949 (peptide)
chain: SDYSSYARTSI
inactive: [1] 0.596 | [2] 0.641 | [3] 0.529 | [4] 0.509 | [5] 0.416 | [6] 0.67

B32: TET2_Y819 (peptide)
chain: RRNSPYSQTMK
inactive: [1] 0.377 | [2] 0.287 | [3] 0.41 | [4] 0.453 | [5] 0.396 | [6] 0.366

B33: TET2_Y819_S817T (peptide)
chain: RRNTPYSQTMK
inactive: [1] 0.353 | [2] 0.276 | [3] 0.415 | [4] 0.391 | [5] 0.421 | [6] 0.359

B34: TEX37_Y25 (peptide)
chain: SHMVDYQPYRK
inactive: [1] 0.7 | [2] 0.758 | [3] 0.622 | [4] 0.727 | [5] 0.789 | [6] 0.81

B35: TEX37_Y25_D24N (peptide)
chain: SHMVNYQPYRK
inactive: [1] 0.639 | [2] 0.508 | [3] 0.539 | [4] 0.448 | [5] 0.712 | [6] 0.403

B36: TEX37_Y25_YF (peptide)
chain: SHMVDYQPFRK
inactive: [1] 0.866 | [2] 0.865 | [3] 0.736 | [4] 0.687 | [5] 0.903 | [6] 1.09

B37: TEX37_Y28 (peptide)
chain: VDYQPYRKHKY
inactive: [1] 1.21 | [2] 0.835 | [3] 1.18 | [4] 1.17 | [5] 1.09 | [6] 1.07
